Measurements as given in PMC4336329 (PLoS ONE, 2015).
Among all 310,000 compounds or so, about 14,000 (4.5%) showed an effect of 50% or more. Effects have a minus sign here. Some of the results follow.

Molecular target: human ether-à-go-go-related gene (hERG) potassium channel (human, UniProt Q12809)
Experiment: primary screen, population patch clamp on CHO cells stably expressing hERG
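Also: peak tail current of the secondary pulse compared with the same well before compound.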

human ether-à-go-go-related gene (hERG) potassium channel, sequence (Q12809 whole entry, looked up): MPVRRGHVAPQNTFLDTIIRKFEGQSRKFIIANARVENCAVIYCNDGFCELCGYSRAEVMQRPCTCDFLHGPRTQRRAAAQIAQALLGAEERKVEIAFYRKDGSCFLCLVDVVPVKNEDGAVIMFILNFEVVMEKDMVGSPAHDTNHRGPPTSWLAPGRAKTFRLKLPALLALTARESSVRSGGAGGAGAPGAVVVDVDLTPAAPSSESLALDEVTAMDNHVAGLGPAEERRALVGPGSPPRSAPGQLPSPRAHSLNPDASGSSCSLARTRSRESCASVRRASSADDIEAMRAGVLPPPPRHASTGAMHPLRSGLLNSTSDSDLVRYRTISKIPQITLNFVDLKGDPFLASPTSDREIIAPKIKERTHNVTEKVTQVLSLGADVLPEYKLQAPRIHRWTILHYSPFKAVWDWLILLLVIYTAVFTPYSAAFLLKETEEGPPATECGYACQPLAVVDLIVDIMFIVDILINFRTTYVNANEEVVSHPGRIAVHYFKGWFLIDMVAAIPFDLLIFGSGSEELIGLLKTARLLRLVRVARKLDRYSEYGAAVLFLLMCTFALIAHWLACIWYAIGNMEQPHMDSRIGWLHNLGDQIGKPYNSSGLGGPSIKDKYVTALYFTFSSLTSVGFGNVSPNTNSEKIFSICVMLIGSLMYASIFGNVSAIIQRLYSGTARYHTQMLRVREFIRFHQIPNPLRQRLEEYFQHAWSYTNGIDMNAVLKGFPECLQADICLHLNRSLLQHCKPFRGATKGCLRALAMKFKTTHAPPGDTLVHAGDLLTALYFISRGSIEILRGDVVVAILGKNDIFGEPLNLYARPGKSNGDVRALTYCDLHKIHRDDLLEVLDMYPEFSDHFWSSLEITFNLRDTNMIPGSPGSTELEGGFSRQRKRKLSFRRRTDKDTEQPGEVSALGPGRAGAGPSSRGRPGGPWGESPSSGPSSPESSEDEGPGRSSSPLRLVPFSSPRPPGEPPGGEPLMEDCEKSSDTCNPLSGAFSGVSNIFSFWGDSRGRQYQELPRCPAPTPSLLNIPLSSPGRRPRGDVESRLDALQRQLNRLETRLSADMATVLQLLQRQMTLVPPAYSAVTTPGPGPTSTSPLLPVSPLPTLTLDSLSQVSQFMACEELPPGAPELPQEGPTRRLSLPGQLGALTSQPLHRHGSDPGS

SMILES | hERG current change (%, negative = inhibition) at 10uM [%]
CCC(NC(=O)COC(=O)C1CC2CCCC(C1)C2=O)c1ccc(Br)cc1 (centres unmarked) | -13
CCOc1ccc(C(C(=O)NCC2CCCO2)N(Cc2cccs2)C(=O)c2snc(C(N)=O)c2N)cc1 (centres unmarked) | 4.91
CCN(CC(=O)NCc1ccc(Cl)cc1)C(=O)CCOc1ccc(C)cc1 | -82.6
COC(=O)c1c(/N=C/NOCc2ccc(Cl)cc2)sc2c1CCN(c1ncc(C(F)(F)F)cc1Cl)C2 | 5.58
CCc1ccc(NC(=O)C2C3CCC(O3)C2C(=O)O)cc1 (centres unmarked) | 19.1
COc1cccc(N2CCN(C(=O)CN3C(=O)NC(C)(c4ccc5ccccc5c4)C3=O)CC2)c1 (centres unmarked) | -16.5
COC(=O)N/N=C/c1cccc(OC(=O)c2ccc3c(c2)OCO3)c1 | 2.2
COc1cccc(OC)c1NC(=O)Cc1nn(C)c(=O)c2ccccc12 | 15.8
CCOC(=O)N1CCN(C(=O)c2ccc3c(c2)sc2nc(-c4ccccc4)cn23)CC1 | -49.3
O=[N+]([O-])c1ccc(N/N=C/c2cccc(O)c2)cc1 | 15.4
COc1ccc(OC)c(CNS(=O)(=O)c2c(C)nc3scc(C)n3c2=O)c1 | -1.86
CC(=O)Nc1ccc(C2=NN(Cc3nnc(-c4ccccc4)o3)C(=O)SC2)cc1 | -16.6
CC(NC(=O)C1CC2CCCC(C1)C2=O)c1ccccc1 (centres unmarked) | -4.45
CC(C)N(C(=O)COC(=O)CNS(=O)(=O)c1ccccc1F)c1ccccc1 | -10.4
O=C(NC1CCCc2ccccc21)N[C@@H](Cc1ccccc1)C(=O)O (some centres unmarked) | -0.795
COc1cc(Cl)ccc1OCc1cc(C(=O)NC(C)Cc2cnccn2)no1 (centres unmarked) | -53.8
O=C(OC1CCCCC1=O)c1cc(=O)c2ccccc2o1 (centres unmarked) | 15.2
COc1ccc(NS(=O)(=O)c2cc(NC(=O)CC(C)(C)C)ccc2N2CCCC2)cc1 | -8.54
CN(C)C(=O)CCC(=O)N1CCCC(C(=O)c2ccc(C(F)(F)F)cc2)C1 (centres unmarked) | 4.35
CC(=O)C1C(c2ccccc2)c2c(n[nH]c2C)CC1(C)O (centres unmarked) | 13.2
CC(C)(C)c1nc(CN2CCOCC2)cc(CN2CCOCC2)c1O.Cl | -15
N#CC1=C(N)n2c(s/c(=C\c3ccco3)c2=O)=C(C#N)C1c1ccco1 (centres unmarked) | -18.6
O=C(OCc1ccccc1)/C(=C/c1cccc([N+](=O)[O-])c1)NC(=O)c1ccco1 | -63.3
